Data: the BET-seq Pho4 binding data (Le et al. 2018)
The other results are listed elsewhere or left out. The energies were worked out here from pooled read counts, against the library average; single values are noisy.

Each sequence was assayed against T1, Pho4 (S. cerevisiae) (UniProt P07270) (assay: relative binding free energy (BET-seq); higher = weaker binding). Conditions: reference: library average.
T1 sequence: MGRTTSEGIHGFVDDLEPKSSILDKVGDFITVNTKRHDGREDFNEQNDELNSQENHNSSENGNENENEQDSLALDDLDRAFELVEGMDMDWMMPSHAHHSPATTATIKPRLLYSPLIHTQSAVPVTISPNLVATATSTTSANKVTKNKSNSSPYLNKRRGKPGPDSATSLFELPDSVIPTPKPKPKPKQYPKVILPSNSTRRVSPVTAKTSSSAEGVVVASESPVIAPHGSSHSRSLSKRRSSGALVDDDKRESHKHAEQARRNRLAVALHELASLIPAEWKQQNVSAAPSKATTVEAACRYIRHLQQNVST

| Sequence | relative binding free energy |
| --- | --- |
| GTATACACGTGAAAGT | 0.31 kcal/mol |
| GTGATCACGTGCAGGG | 0.17 kcal/mol |
| AGGTTCACGTGCTTAG | 0.24 kcal/mol |
| ACGTGCACGTGCATGG | 0 kcal/mol |
| TAATACACGTGTGGGT | 0.18 kcal/mol |
| GTTTTCACGTGGTGTC | 0.28 kcal/mol |
| ATGGCCACGTGGGTCT | -0.04 kcal/mol |
| ACGTGCACGTGGGGGT | -0.24 kcal/mol |
| CGGTTCACGTGCTTGT | 0.14 kcal/mol |
| CTGTACACGTGGCGTG | 0.03 kcal/mol |
| AGAGCCACGTGTGAGT | 0.06 kcal/mol |
| GTTGACACGTGTCAGG | 0.12 kcal/mol |
| ATAGTCACGTGATGTG | 0.21 kcal/mol |
| GGCGACACGTGGTAGG | 0.16 kcal/mol |
| CGGTTCACGTGGCAGT | 0.22 kcal/mol |
| TGTCTCACGTGTTCGT | 0.23 kcal/mol |
| GTGGGCACGTGTACGT | 0.02 kcal/mol |
| ATGTGCACGTGTTTTT | 0.07 kcal/mol |
| AGCTGCACGTGTAGAG | -0.06 kcal/mol |
| ATCGTCACGTGTTGTG | 0.1 kcal/mol |
| TAGTGCACGTGTTTTA | -0.04 kcal/mol |
| ATGAGCACGTGGTAGG | -0.14 kcal/mol |
| TGTTCCACGTGGTACT | -0.01 kcal/mol |
| AGGTTCACGTGGTTTA | 0.31 kcal/mol |
| AGGAACACGTGTAGTA | 0.04 kcal/mol |

| Sequence | relative binding free energy |
| --- | --- |
| AATGTCACGTGAGGGC | 0.3 kcal/mol |
| TAATGCACGTGATTAG | 0.18 kcal/mol |
| GCGTTCACGTGGAGTT | 0.27 kcal/mol |
| TTTATCACGTGTTGTG | 0.06 kcal/mol |
| AGTGTCACGTGAAAGC | 0.34 kcal/mol |
| TATTACACGTGAGATG | 0.37 kcal/mol |
| AGTTTCACGTGACTGT | 0.35 kcal/mol |
| AGGCTCACGTGTGGGT | 0.22 kcal/mol |
| AGAGTCACGTGTCAGG | 0.25 kcal/mol |
| CAAGGCACGTGGTAAA | 0.1 kcal/mol |
| GAGGACACGTGTGAGT | 0.14 kcal/mol |
| ATTTGCACGTGGCTTA | -0.07 kcal/mol |
| AGAACCACGTGGGTGG | -0.26 kcal/mol |
| CGGAACACGTGGGGAT | -0.01 kcal/mol |
| ATTATCACGTGGGTCT | -0.13 kcal/mol |
| TGCTCCACGTGTGTGT | -0.07 kcal/mol |
| TAGTTCACGTGGCTGG | 0.31 kcal/mol |
| ATTAACACGTGGCGTT | -0.15 kcal/mol |
| TTGTTCACGTGTTACG | 0.39 kcal/mol |
| TAAGACACGTGAGGGA | 0.19 kcal/mol |
| GCTTGCACGTGGATTT | 0.14 kcal/mol |
| TAGGGCACGTGAACGT | 0.06 kcal/mol |
| TTATACACGTGAAGGT | 0.26 kcal/mol |
| CTCGGCACGTGGGAGG | -0.26 kcal/mol |
| AGTATCACGTGTCTAG | 0.19 kcal/mol |

| Sequence | relative binding free energy |
| --- | --- |
| GGGTGCACGTGATTGT | 0.14 kcal/mol |
| GAGTGCACGTGTTATT | 0.05 kcal/mol |
| TAGGTCACGTGCTGCT | -0.03 kcal/mol |
| TCGAGCACGTGGGTCG | -0.18 kcal/mol |
| TAAAGCACGTGGTAAG | 0.01 kcal/mol |
| CCAAGCACGTGGTGGT | -0.02 kcal/mol |
| TTATCCACGTGTAGGG | 0.05 kcal/mol |
| AGCTGCACGTGCTGGT | -0.18 kcal/mol |
| CGTGTCACGTGAACAG | 0.51 kcal/mol |
| GGGAGCACGTGCTATG | -0.18 kcal/mol |
| CAGTACACGTGGGGTG | -0.11 kcal/mol |
| TTTTTCACGTGGATGC | 0.2 kcal/mol |
| GGTCACACGTGTGAGG | 0.15 kcal/mol |
| GGTCGCACGTGGCGTT | -0.24 kcal/mol |
| GGGCGCACGTGAGTAT | 0.07 kcal/mol |
| TGGATCACGTGTCGTG | 0 kcal/mol |
| GGCTTCACGTGTGAAA | 0.44 kcal/mol |
| GATTACACGTGTATGG | 0.09 kcal/mol |
| AGCAGCACGTGCGGGT | -0.18 kcal/mol |
| GTTATCACGTGTATAG | 0.22 kcal/mol |
| TGCGTCACGTGATTTA | 0.29 kcal/mol |
| AGCAGCACGTGACGGG | 0.13 kcal/mol |
| GGCGCCACGTGGTTGG | -0.19 kcal/mol |
| TCTGGCACGTGTAAGA | 0.05 kcal/mol |
| TGGTTCACGTGTTCTT | 0.23 kcal/mol |

| Sequence | relative binding free energy |
| --- | --- |
| AAGGCCACGTGGTGGG | -0.16 kcal/mol |
| GTTGCCACGTGTGTAG | -0.11 kcal/mol |
| TTTTACACGTGTTACG | 0.17 kcal/mol |
| ATGTACACGTGGTGTG | 0.02 kcal/mol |
| GATGCCACGTGCGTTT | 0.19 kcal/mol |
| GCATGCACGTGGTTTT | -0.04 kcal/mol |
| ATGGTCACGTGTTGAT | 0.14 kcal/mol |
| TGGTACACGTGATTAT | 0.22 kcal/mol |
| GCGAACACGTGAGGTG | 0.17 kcal/mol |
| ATATGCACGTGTCTGG | -0.07 kcal/mol |
| TTTGCCACGTGCTGGA | -0.04 kcal/mol |
| AATGTCACGTGGTGGA | 0.04 kcal/mol |
| CTTAGCACGTGTTAAT | -0.03 kcal/mol |
| ATAATCACGTGATAAG | 0.31 kcal/mol |
| TTGGGCACGTGATCTG | -0.08 kcal/mol |
| TATGTCACGTGGACAA | 0.1 kcal/mol |
| TCGTTCACGTGCTGTG | 0.02 kcal/mol |
| ATGGCCACGTGGCGTG | -0.05 kcal/mol |
| AGTTTCACGTGTAATT | 0.24 kcal/mol |
| GGTGGCACGTGGTTGC | -0.02 kcal/mol |
| ATATACACGTGTCTTT | 0.03 kcal/mol |
| GGGGACACGTGGTCGA | -0.07 kcal/mol |
| ATGGGCACGTGATGGT | -0.04 kcal/mol |
| AGAGACACGTGAGTTG | 0.18 kcal/mol |
| ATTGGCACGTGGTATT | -0.27 kcal/mol |

| Sequence | relative binding free energy |
| --- | --- |
| TTGTACACGTGCTGGT | -0.05 kcal/mol |
| GTCGGCACGTGAGATG | 0.22 kcal/mol |
| GTAAGCACGTGTTGAG | 0.01 kcal/mol |
| TTGACCACGTGAGGTG | 0.2 kcal/mol |
| ACGAGCACGTGGCGGG | -0.21 kcal/mol |
| TTTATCACGTGTGGAG | 0.24 kcal/mol |
| CGATGCACGTGGCGGA | -0.05 kcal/mol |
| TTTAACACGTGTTATA | 0.04 kcal/mol |
| CTAGGCACGTGGTTTT | -0.11 kcal/mol |
| GATCTCACGTGGGATG | 0.18 kcal/mol |
| TGGAGCACGTGGTCGG | -0.21 kcal/mol |
| TACTTCACGTGGGGGT | 0.06 kcal/mol |
| TATTGCACGTGGATCG | 0.09 kcal/mol |
| CGTGGCACGTGTATAG | -0.06 kcal/mol |
| TCATGCACGTGATGGG | 0.09 kcal/mol |
| TGTTCCACGTGTATTT | 0 kcal/mol |
| TTAGGCACGTGTGGGA | -0.02 kcal/mol |
| AGTTTCACGTGGGCCT | 0.22 kcal/mol |
| CCTGGCACGTGAGTTG | 0.19 kcal/mol |
| CGTTTCACGTGTGAAT | 0.26 kcal/mol |
| GGTTTCACGTGAATCT | 0.44 kcal/mol |
| ATTGGCACGTGTCGTA | -0.11 kcal/mol |
| CGTCTCACGTGGTGGG | 0.12 kcal/mol |
| CTTGGCACGTGGAGTC | -0.11 kcal/mol |
| ATGTTCACGTGTGTGG | 0.31 kcal/mol |

| Sequence | relative binding free energy |
| --- | --- |
| GGTGCCACGTGTAGTT | 0.03 kcal/mol |
| AGTAGCACGTGTGAAG | 0.08 kcal/mol |
| GAGGACACGTGAGAGG | 0.36 kcal/mol |
| TGTGACACGTGAATAG | 0.15 kcal/mol |
| TGTTGCACGTGATACG | -0.01 kcal/mol |
| TAAATCACGTGGCGGG | -0.02 kcal/mol |
| GATAACACGTGGGTGG | 0 kcal/mol |
| TCGAGCACGTGTGAGT | 0 kcal/mol |
| AGGATCACGTGTGCTT | 0.22 kcal/mol |
| GGTTGCACGTGGACGG | 0.05 kcal/mol |
| TGGAACACGTGGGGGT | -0.03 kcal/mol |
| TGTTTCACGTGCGAGG | 0.21 kcal/mol |
| TTAATCACGTGAAAAG | 0.42 kcal/mol |
| AAGGGCACGTGAGGTA | 0.1 kcal/mol |
| TTTCGCACGTGATGAG | 0.14 kcal/mol |
| GGTAGCACGTGGGTAG | -0.14 kcal/mol |
| TTAATCACGTGCTGTG | 0 kcal/mol |
| GTTGTCACGTGACTGT | 0.11 kcal/mol |
| AGCTGCACGTGGGTTG | -0.13 kcal/mol |
| TTAGGCACGTGGTGTT | -0.2 kcal/mol |
| AGGGACACGTGTCGGT | -0.1 kcal/mol |
